# Test results: PubChem BioAssay AID686979 (National Center for Advancing Translational Sciences (NCATS), 2013)
# Among all 420,000 compounds or so, about 50,000 (12%) were called active. Inconclusive results, whose numbers are uncertain, are shown with a selection of clear calls. Calls follow the shape of the dose curve; as a rule, active = well fitted inhibition curve with a large enough effect; inconclusive = small, poorly fitted or top-dose-only effect; inactive = flat fitted curve, though single readings scatter. Potencies of inconclusive entries are left out as doubtful fits.
# Assay: qHTS for Inhibitors of human tyrosyl-DNA phosphodiesterase 1 (TDP1): qHTS in cells in presence of CPT; also: nearly all actives have a fitted effect of over 55% in size
# Settings: chicken DT40 Tdp1-/-;hTDP1 cells + 20 nM CPT, ATP luminescence, 48 h; activity change, negative = growth inhibition: at 46.2 µM (top of the series)
# Method in brief: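 Chicken DT40 Tdp1-/- cells complemented with human TDP1, 400 cells/well, exposed to compounds plus 20 nM camptothecin for at least 48 h at 37 C; viability read as ATP content by CellTiter-Glo luminescence.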
# % is scaled to controls: 0 for no effect and ±100 for the full control effect; potency is read from the fitted curve at half-maximal effect; tags tell the direction and shape of the fitted curve.
Structure (SMILES),Potency,"activity change, negative = growth inhibition"
O=C(Nc1ccc(S(=O)(=O)N2CCCc3ccccc32)cc1)C1CCCO1 (stereo unspecified),"inconclusive [inhibitor, partial curve, poor fit]",–
COc1ccc(C)cc1NC(=O)c1ccc(=O)n(Cc2ccccc2)c1,"inconclusive [inhibitor, single point]",–
Cc1cc2c(NCCc3ccccc3)ncnc2s1,active: 1.64 µM,–
CC(C)CCNC(=O)C1CCN(c2nc3ccc(Cl)cc3[nH]2)CC1,"inconclusive [inhibitor, single point]",–
Cc1[nH]c2ccccc2c1C(=O)C(=O)NCc1ccco1,–,inactive: -21.3%
COc1ccc(C(O)(C(C)C)C(CN2CCOCC2)c2ccc(Cl)cc2)cc1 (stereo unspecified),"inconclusive [inhibitor, single point]",–
CCOC(=O)c1c(NC2OC(=O)c3c2ccc(OC)c3OC)sc(C(=O)OC(C)(C)C)c1C (stereo unspecified),"inconclusive [inhibitor, single point]",–
CCOc1ccc(S(=O)(=O)NCc2cccnc2)cc1NC(=O)c1ccccc1,–,inactive: -14.8%
CN(CC(=O)Nc1ccc(Cl)c(C(F)(F)F)c1)C(=O)c1cc(=O)[nH]c2ccccc12,"inconclusive [inhibitor, single point]",–
CC(C)(C)c1ccc(C(=O)NNc2cc(N3CCCCC3)nc(N3CCCCC3)n2)cc1,active: 25.9 µM,–
Cc1cc(=O)[nH]c(N/N=C/c2c(C)nn(-c3ccccc3)c2C)n1,"inconclusive [inhibitor, partial curve]",–
CC[C@]12c3[nH]c4cc(CCC(=O)N(C)C)ccc4c3CCN1C(=O)[C@@H](CC(=O)NCCC1=CCCCC1)C[C@@H]2C(=O)N1CCN(C(=O)C2CC2)CC1,"inconclusive [inhibitor, single point]",–
CCCc1cc(=O)[nH]c(SCC(=O)c2ccc(S(=O)(=O)N3CCCC3)cc2)n1,"inconclusive [inhibitor, partial curve]",–
COc1ccccc1N=Nc1c(O)[nH]c2ccc(Br)cc12,"inconclusive [inhibitor, single point]",–
C/C(=N\Nc1nncc2ccccc12)c1ccc(Cl)c([N+](=O)[O-])c1,"inconclusive [inhibitor, single point]",–
CC(C)N(CCNC(=O)COc1ccc2oc3c(c2c1)CCCC3)C(C)C,"inconclusive [inhibitor, single point]",–
O=C(O)CCCNS(=O)(=O)c1ccc(NCc2ccccc2)c(C(=O)O)c1,–,inactive: 2.2%
CCCNC(=O)C1(C)CCN(Cc2ccc(C)c3ccccc23)C1 (stereo unspecified),"inconclusive [inhibitor, single point]",–
COCCCNC(=O)C[C@H]1C[C@H](C(=O)N2CCCCC2)[C@@]2(CCc3ccccc3)c3[nH]c4ccc(Cl)cc4c3CCN2C1=O,active: 8.2 µM,–
O=C1Nc2cc(C(=O)N3CCOCC3)ccc2S/C1=C/c1ccccc1F,active: 16.4 µM,–
Cc1cc(C)c(S(=O)(=O)N(C)CC(=O)NCC2CCCO2)c(C)c1 (stereo unspecified),–,inactive: -8.5%
COc1ccc([N+](=O)[O-])cc1NC(=S)NC(C)=O,"inconclusive [inhibitor, single point]",–
CC(C)(C)OC(=O)N1CCCC(C(=O)Nc2ccc(C(=O)NCCc3ccccc3)cc2)C1 (stereo unspecified),"inconclusive [inhibitor, single point]",–
Cc1cc(=O)[nH]c(SCn2nnc3ccccc3c2=O)n1,–,inconclusive: -31.8% [inhibitor]

Structure (SMILES),Potency,"activity change, negative = growth inhibition"
O=C(CSC1=NNC(c2ccccn2)S1)Nc1cccc(Cl)c1 (stereo unspecified),active: 1.84 µM,–
COC(=O)c1sc2cc(C(F)(F)F)cnc2c1-c1cccnc1,–,inactive: 0.952%
CCCCCCCCN1C(=O)[C@H](CC(=O)N2CCN(C(=O)c3ccco3)CC2)C[C@@]2(C(=O)OCC)CCCC=C12,"inconclusive [inhibitor, single point]",–
Cc1noc(C)c1COC(=O)CCN1c2ccccc2Sc2ccccc21,"inconclusive [inhibitor, single point]",–
COc1ccccc1NC(=O)COC(=O)c1cc2c(s1)CCC2,–,inactive: 12.1%
Cc1ccsc1/C=C/c1ccc2cccc(O)c2n1,"inconclusive [inhibitor, single point]",–
O=S(=O)(NCC1(N2CCOCC2)CCCCC1)c1ccc(F)c(F)c1F,active: 10.3 µM,–
Cc1cc(C(=O)N/N=C/c2ccc([N+](=O)[O-])o2)c(C)o1,active: 20.6 µM,–
Fc1ccccc1CNc1nc(NCC2CC2)nc2ccsc12,active: 14.6 µM,–
CCc1nc(N2CCCCC2C(=O)O)c2oc3ccccc3c2n1 (stereo unspecified),–,inactive: 13%
O=C1OC(c2ccco2)=N/C1=C\c1ccc(-c2cccc(C(F)(F)F)c2)o1,"inconclusive [inhibitor, single point]",–
CC/C(=N\N=C(/CC)c1ccccc1N)c1ccccc1N,active: 29.1 µM,–
Cc1nc2c(-c3ccc(Cl)cc3)cnn2c(N)c1-c1ccc(F)cc1,"inconclusive [inhibitor, single point]",–
O=C(c1ccco1)N(CC1CCCO1)c1nc(-c2ccccc2)cs1 (stereo unspecified),"inconclusive [inhibitor, single point]",–
COc1ccc(/C=C/c2nc(C#N)c(NCCc3ccccc3)o2)cc1OC,"inconclusive [inhibitor, single point]",–
O=C(CCC(=O)NNC(=S)Nc1ccccc1)NCc1ccccc1,–,inactive: 13.9%
CCOC(=O)c1c(CS(=O)(=O)c2ccccc2)n(C)c2cc(Br)c(O)cc12,"inconclusive [inhibitor, partial curve]",–
Cc1cc(N2CCOCC2)nc(C(C)C)n1,–,inactive: -20.5%
O=C(c1ccc2c(c1)OCCO2)N1CCN(c2ncc(C(F)(F)F)cc2Cl)CC1,"inconclusive [inhibitor, single point]",–
CCCOc1cccc(C2C(C(=O)c3ccc(C)o3)=C(O)C(=O)N2c2nc(C)c(C(C)=O)s2)c1 (stereo unspecified),"inconclusive [inhibitor, single point]",–
O=[N+]([O-])c1nn(-c2ccc(Cl)cc2)n(O)c1=NCc1ccccc1Cl,–,inactive: -17.8%
N#CCc1nn2c(-c3ccccc3)ccnc2c1C#N,"inconclusive [inhibitor, single point]",–
CC(=O)Nc1ccc(S(=O)(=O)Nc2cc(-c3cn4ccccc4n3)ccc2C)cc1,"inconclusive [inhibitor, partial curve]",–
O=c1[nH]c2ccc(Cl)cc2c(-c2ccccc2)c1N1CCN(CCO)CC1,"inconclusive [inhibitor, single point]",–

Structure (SMILES),Potency,"activity change, negative = growth inhibition"
CCN(CC)CCN1C(=O)c2ccccc2NC1c1cc(OC)c(OC)c(OC)c1 (stereo unspecified),–,inactive: -13.2%
COc1ccc(CCNC(=O)c2cn(C)c3ccc(S(=O)(=O)N(C)C4CCCCC4)cc3c2=O)cc1OC,"inconclusive [inhibitor, partial curve]",–
CC1(C)CC(=O)c2sc(N3CCCCC3)nc2C1,–,inactive: -0.151%
Cc1cccc(C(=O)Nc2c(C(=O)NCc3ccc(Cl)cc3)sc3nc(C)cc(C)c23)c1,active: 16.4 µM,–
CCOC(=O)C1=C(C)NC2=C(C(=O)c3ccccc32)C1c1cccnc1 (stereo unspecified),"inconclusive [inhibitor, single point]",–
Cc1cccc(C)c1-n1nnnc1C1c2ccccc2C(=O)N1CCc1ccc(O)cc1 (stereo unspecified),–,inconclusive: -33.3% [inhibitor]
C#CCOc1c(Br)cc(/C=C2/C(=O)ON=C2C)cc1OCC,"inconclusive [inhibitor, single point]",–
CC(=O)N(C)c1nc(N)n(-c2ccccc2)n1,–,inactive: -11.5%
COc1cccc(NC(=O)N2CCc3nc(Nc4cc(Cl)cc(Cl)c4)ncc3C2)c1,"inconclusive [inhibitor, single point]",–
COc1cc2cc(C(c3nnnn3Cc3ccc(F)cc3)N3CCCCCC3)c(=O)[nH]c2cc1OC (stereo unspecified),–,inactive: -19.6%
COc1ccc(-c2cc(=O)oc3cc(OCC(=O)NCCCn4ccnc4)ccc23)cc1,active: 20.6 µM,–
COC(=O)C1=C(C)N(CCc2ccccc2)C(=O)C1,"inconclusive [inhibitor, single point]",–
COc1ccccc1OCC(=O)Nc1cccc(S(=O)(=O)NC2=NCCCCC2)c1,–,inactive: -23.9%
O=C(COC(=O)c1nc(Cl)ccc1Cl)NC1CCCCCC1,–,inconclusive: -30.8% [inhibitor]
COc1ccc(-c2nsc(NC(=O)C(C)Oc3ccc(Cl)c(C)c3)n2)cc1 (stereo unspecified),active: 23.1 µM,–
C=CCN(C(=O)c1csnn1)C(C(=O)NC1CCCCC1)c1ccccc1F (stereo unspecified),–,inactive: -12.9%
CCCCN1C[C@H](c2ccc(OC)cc2)[C@@H](CC(=O)Nc2ccc(OC)cc2)C1=O,"inconclusive [inhibitor, single point]",–
CCCn1c(C(O)c2ccc(OCC)cc2)nc2ccccc21 (stereo unspecified),active: 20.6 µM,–
CCn1cc(C(=O)N(C)c2ccccc2F)c2cc(OC)c(OC)cc2c1=O,"inconclusive [inhibitor, single point]",–
Clc1ccc(Nc2nc(Nc3ccc(Cl)cc3)nc(N3CCOCC3)n2)cc1,"inconclusive [inhibitor, single point]",–
COc1ccccc1NS(=O)(=O)c1cc(NC(=O)c2cccnc2)ccc1N1CCCCC1,"inconclusive [inhibitor, single point]",–
COc1ccc(NC(=O)c2cnc(Nc3ccc(C)c(Cl)c3)c3ccccc23)cc1OC,–,inactive: -3.58%
Cc1ccsc1/C=N/NC(=O)CN1CCN(S(=O)(=O)c2ccc(Br)cc2)CC1,"inconclusive [inhibitor, single point]",–
